# Assay results published in the BET-seq Pho4 binding data (Le et al. 2018).
# Some of the results follow. The energies were worked out here from pooled read counts, against the library average; single values are noisy.
# Molecular target: T1, Pho4 (S. cerevisiae) (UniProt P07270)
# T1 sequence: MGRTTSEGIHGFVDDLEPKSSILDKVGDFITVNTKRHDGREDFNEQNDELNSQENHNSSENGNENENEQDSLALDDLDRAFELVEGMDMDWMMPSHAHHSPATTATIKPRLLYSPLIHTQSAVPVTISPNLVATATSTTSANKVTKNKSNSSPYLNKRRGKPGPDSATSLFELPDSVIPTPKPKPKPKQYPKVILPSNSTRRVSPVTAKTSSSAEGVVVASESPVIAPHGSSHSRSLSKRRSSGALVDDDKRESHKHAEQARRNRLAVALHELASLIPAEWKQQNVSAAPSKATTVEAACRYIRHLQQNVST
# Test: relative binding free energy (BET-seq); higher = weaker binding
# Settings: reference: library average
row,Sequence,relative binding free energy [kcal/mol]
1,GGGAACACGTGGAAGT,0.24
2,GTTATCACGTGGTATC,0.02
3,TTATACACGTGAGCGT,0.17
4,CGAGGCACGTGACGGT,-0.06
5,TGTGTCACGTGACCAG,0.15
6,CATTGCACGTGGTGTA,-0.11
7,AGAGACACGTGATTGT,0.08
8,AAAGGCACGTGGTATT,-0.1
9,TAGGGCACGTGGTGAC,-0.22
10,AATTTCACGTGTTTTA,0.31
11,CGGAGCACGTGGAGAG,-0.11
12,GGATGCACGTGTGCGG,0.05
13,TTAAGCACGTGTATTT,-0.02
14,CGGTTCACGTGGTATC,0.35
15,GTGTGCACGTGGCTTT,-0.12
16,GTATGCACGTGTTAAA,-0.01
17,TAGGACACGTGTCATG,0.12
18,GTTAACACGTGAAGGT,0.46
19,ATTCTCACGTGGGTAT,0.09
20,GGGGCCACGTGGTAAG,-0.12
21,GCTCGCACGTGAGGGT,0.24
22,TTGGTCACGTGGGCCT,0.07
23,TCGTTCACGTGTAGTA,0.22
24,TAAGGCACGTGTTACT,-0.1
25,TCGGTCACGTGGGCAG,-0.05

row,Sequence,relative binding free energy [kcal/mol]
1,GGTATCACGTGGTGAG,0.07
2,GAGTGCACGTGGAGTC,-0.12
3,TGCTTCACGTGTACGG,0.13
4,AGGGTCACGTGAAAGT,0.22
5,TGCTTCACGTGAATTT,0.31
6,GGATACACGTGACGGG,0.47
7,GAATACACGTGGGGGG,0.02
8,TTATCCACGTGTGAGT,0.06
9,ATAATCACGTGGCTGG,0.03
10,AGCTTCACGTGCGAGG,0.21
11,ATGTTCACGTGGTTAC,0.23
12,ATATTCACGTGTCAGG,0.29
13,TTAGTCACGTGTATGC,0.06
14,GTGATCACGTGGTAAA,0.19
15,AGTAACACGTGGCGAG,0
16,TTGTTCACGTGGGAGA,0.3
17,ATTACCACGTGGGGTT,-0.21
18,ACTTGCACGTGTTTGG,0
19,AGTTGCACGTGTTGCG,0.08
20,ATTAGCACGTGCAGGG,-0.22
21,CATAGCACGTGGGTAG,-0.17
22,TGAGGCACGTGCTAGT,-0.22
23,GTATGCACGTGGGGGA,-0.16
24,TAGGCCACGTGGGTTT,-0.13
25,TAAATCACGTGATGAT,0.26

row,Sequence,relative binding free energy [kcal/mol]
1,GGGTACACGTGGGGCT,-0.04
2,CACGTCACGTGATGGG,0.22
3,AGTTGCACGTGATTCG,0.15
4,TGGTACACGTGATAGA,0.2
5,TAAGGCACGTGTCGAG,-0.05
6,CGTAACACGTGGGCGG,-0.27
7,TCGTTCACGTGTGCTG,0.19
8,GGTTGCACGTGTGCAG,-0.08
9,AAGTGCACGTGTTCTT,0.07
10,TTTTGCACGTGAGTAG,0.1
11,TATAACACGTGGATGT,-0.15
12,CAAATCACGTGGGGTG,0.05
13,GTAAGCACGTGAGGCA,0.29
14,TGGTGCACGTGAGAGC,0.2
15,ATGGGCACGTGTGTGC,-0.13
16,TTAATCACGTGATCGT,0.23
17,GAGGACACGTGGGGCT,0
18,GTATCCACGTGTTGGA,0.06
19,GTGTTCACGTGGGTGA,0.13
20,TCATGCACGTGTTGTG,-0.02
21,TTTATCACGTGATGTA,0.29
22,TGATGCACGTGGAGGA,0.07
23,GTTATCACGTGTGCAT,0.26
24,AAGGACACGTGAGTAG,0.22
25,GGATCCACGTGGTCGG,0.01

row,Sequence,relative binding free energy [kcal/mol]
1,TTGAACACGTGTGGAA,0.19
2,AGGATCACGTGTTTTG,0.19
3,TCATCCACGTGGGGGT,-0.11
4,AAGGTCACGTGCAATG,0.17
5,TGGTTCACGTGGGAGT,0.17
6,GGTGACACGTGAATGT,0.35
7,GTATTCACGTGCCGTT,0.31
8,GTAGTCACGTGCAGAT,0.18
9,CGATCCACGTGGGGGG,-0.19
10,CCGGGCACGTGGTTGA,-0.03
11,TTGTACACGTGATTTA,0.34
12,GTGGACACGTGATGGA,0.16
13,TGGTGCACGTGGGCGC,-0.16
14,TTTGGCACGTGATAAC,0.02
15,GGTATCACGTGCATGG,0.16
16,CGAGGCACGTGTAAGT,0.04
17,TAAGGCACGTGCGTGA,-0.16
18,AGTAGCACGTGTAGTG,-0.09
19,TGTTTCACGTGCCGGG,0.31
20,AACGGCACGTGGCGGG,-0.2
21,ATTGTCACGTGAGTGG,0.23
22,GCGGCCACGTGGGGGA,-0.2
23,CGAGGCACGTGAGGAG,0.28
24,CTAGGCACGTGCTGGG,-0.29
25,TTTGTCACGTGGGAAA,0.07

row,Sequence,relative binding free energy [kcal/mol]
1,ATAGACACGTGTCTTG,0.09
2,CGCGGCACGTGATGGT,-0.04
3,AAAGTCACGTGTAGTG,0.18
4,AGTTACACGTGAGGCT,0.32
5,CTTCGCACGTGTTTTG,-0.03
6,GTTTCCACGTGGCTGG,0.12
7,TGTTACACGTGGTTAA,0.1
8,TTAATCACGTGTTTGT,0.13
9,TGGTACACGTGCTGGA,0.05
10,GGGAGCACGTGGAATG,-0.05
11,AAGATCACGTGGTTTA,0.07
12,GTAGTCACGTGATGTT,0.31
13,GTGGCCACGTGATGGG,0.14
14,TTCGACACGTGTGTTA,-0.03
15,CTTATCACGTGTTTAG,0.2
16,CAGGGCACGTGGAGAG,-0.13
17,TTTTACACGTGGGGTA,-0.03
18,TTAGTCACGTGGGCTA,-0.02
19,TGGTTCACGTGTGGTC,0.3
20,GAATTCACGTGTTTTG,0.27
21,TCGTACACGTGGATTT,0.16
22,GGGATCACGTGGGGGC,0.1
23,GGATTCACGTGCAGGA,0.3
24,TGCTGCACGTGCGGAG,-0.05
25,TGGTTCACGTGCGGTG,0.3

row,Sequence,relative binding free energy [kcal/mol]
1,GCGATCACGTGTTGTG,0.16
2,GGATGCACGTGGAGCG,-0.09
3,CGGTGCACGTGGTTGC,-0.14
4,TGGGGCACGTGTTCGC,-0.19
5,TTGTTCACGTGCTCAG,0.24
6,ATCTGCACGTGGAGGT,-0.04
7,GGTGTCACGTGTTGAA,0.04
8,CTGCTCACGTGTTATG,0.37
9,AGGAGCACGTGGGGTG,-0.32
10,TATCGCACGTGTGAGT,0.11
11,AGAGGCACGTGGTAGG,-0.1
12,TGGGGCACGTGGAAAA,-0.04
13,TTTTGCACGTGATAAA,0.12
14,AGTTACACGTGTTTAT,0.08
15,TGATTCACGTGCTTTT,0.27
16,TACTACACGTGAGGGT,0.33
17,TTCGTCACGTGGTAGA,0.02
18,CGGAACACGTGTAGGT,0.03
19,GTTTCCACGTGATTGG,0.2
20,ATATGCACGTGTTGTG,-0.11
21,TTTGACACGTGCTTCG,-0.08
